Data: publication PMC4336329 (PLoS ONE, 2015)
About 14,000 (4.5%) of roughly 310,000 compounds showed an effect of 50% or more. Effects have a minus sign here. The list shows a part of the results.

target: human ether-à-go-go-related gene (hERG) potassium channel (human, UniProt Q12809); experiment: primary screen, population patch clamp on CHO cells stably expressing hERG
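Note: peak tail current of the secondary pulse compared with the same well before compound.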

Sequence of human ether-à-go-go-related gene (hERG) potassium channel (Q12809 whole entry, looked up): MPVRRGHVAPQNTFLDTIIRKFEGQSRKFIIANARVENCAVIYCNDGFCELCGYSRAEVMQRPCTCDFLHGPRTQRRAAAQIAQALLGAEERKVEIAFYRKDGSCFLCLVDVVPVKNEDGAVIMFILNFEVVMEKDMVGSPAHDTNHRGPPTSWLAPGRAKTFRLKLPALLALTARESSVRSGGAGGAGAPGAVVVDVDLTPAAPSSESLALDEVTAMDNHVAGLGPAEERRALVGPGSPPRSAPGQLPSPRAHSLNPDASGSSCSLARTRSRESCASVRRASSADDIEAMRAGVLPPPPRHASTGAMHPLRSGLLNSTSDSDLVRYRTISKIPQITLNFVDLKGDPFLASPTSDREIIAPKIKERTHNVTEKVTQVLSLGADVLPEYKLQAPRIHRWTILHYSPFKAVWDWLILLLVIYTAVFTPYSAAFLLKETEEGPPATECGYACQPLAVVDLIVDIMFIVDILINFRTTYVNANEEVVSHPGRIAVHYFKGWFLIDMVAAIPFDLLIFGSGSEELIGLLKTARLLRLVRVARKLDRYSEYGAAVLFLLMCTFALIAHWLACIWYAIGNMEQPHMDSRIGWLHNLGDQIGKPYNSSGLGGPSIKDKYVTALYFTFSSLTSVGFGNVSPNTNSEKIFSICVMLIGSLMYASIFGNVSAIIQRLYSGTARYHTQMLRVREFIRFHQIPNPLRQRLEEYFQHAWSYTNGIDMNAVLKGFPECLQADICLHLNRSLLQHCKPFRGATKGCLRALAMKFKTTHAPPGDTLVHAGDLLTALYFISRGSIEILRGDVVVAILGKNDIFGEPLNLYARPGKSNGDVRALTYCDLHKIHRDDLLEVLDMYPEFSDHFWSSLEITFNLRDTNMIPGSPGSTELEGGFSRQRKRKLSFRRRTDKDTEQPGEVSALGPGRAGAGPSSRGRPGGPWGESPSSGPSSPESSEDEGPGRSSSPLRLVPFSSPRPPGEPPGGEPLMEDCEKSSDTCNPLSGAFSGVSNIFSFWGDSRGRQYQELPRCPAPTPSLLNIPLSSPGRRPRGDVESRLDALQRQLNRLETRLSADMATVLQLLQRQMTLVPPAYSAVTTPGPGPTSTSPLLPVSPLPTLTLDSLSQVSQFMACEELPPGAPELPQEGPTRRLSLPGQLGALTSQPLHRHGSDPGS

SMILES | hERG current change (%, negative = inhibition) at 10uM [%]
CCOc1ccc(NC(=O)C(c2ccccn2)N(C(=O)CCl)c2ccc(F)cc2)cc1 (stereo not shown) | -11.9
CN1CCN(NC(=O)CN2C(=O)/C(=C/c3c(Cl)cccc3Cl)SC2=S)CC1 | -2.16
O=C(NCc1ccc(-c2nc3ccccc3s2)cc1)c1cc2ccccc2o1 | -1.71
Cc1ccc(CN2CC[C@H]3C=CCc4cccc(c43)C2)cc1 | -22.1
N#Cc1nc(COc2ccc(Br)cc2)oc1NCCN1CCOCC1 | -56.6
CC(=O)NC12CC3CC(C1)CC(C(=O)N1CCN(S(=O)(=O)c4cccc(C(F)(F)F)c4)CC1)(C3)C2 | -19.2
CN(C)S(=O)(=O)N(CC(=O)Nc1ccccc1)c1ccccc1 | -1.67
Cc1ccc2[nH]c3c(=O)n(CCCN4CCN(C)CC4)cnc3c2c1 | -37
CC(=O)c1c(C)[nH]c(C(=O)N2CCCCCC2)c1C | -4.63
C=CCn1c(C(C)NC(=O)c2ccccc2C)n[nH]c1=S (stereo not shown) | 12.3
Cc1ccc(SC(C)C(=O)Nc2ncn[nH]2)cc1 (stereo not shown) | -6.83
COc1ccc(C(=O)NCC(c2ccc3c(c2)OCO3)N2CCN(c3ccc(OC)cc3)CC2)cc1 (stereo not shown) | -25.9
C[C@H]1C=C(C(=O)NCc2nc3ccccc3[nH]2)O[C@@H](OCc2ccc(CO)cc2)C1 | 4.75
Cc1cccc(C(=O)NCCCn2ccnc2)c1C | 9.31
Cc1ccc2c3c(c(SCC(=O)Nc4nonc4C)nc2c1)CCCC3 | 1.22
CC(/C=N/NC(=O)Cc1cccn1C)=C\c1ccco1 | -13.1
COc1cccc2cc(C(=O)C3=C(O)C(=O)N(Cc4ccco4)C3c3cccnc3)oc12 (stereo not shown) | -5.95
O=C1c2ccc([N+](=O)[O-])cc2NC(c2ccco2)N1/N=C/c1ccco1 (stereo not shown) | -35
CCc1nnc(NC2=NCCC2)s1 | 2.96
CCOc1ccc(-n2ccc(=O)c(C(=O)Nc3ccc(S(=O)(=O)N4CCOCC4)cc3)n2)cc1 | 6.07
Cc1ccc(C)c(SCc2noc(C(=O)NCC3CCCO3)c2C(=O)O)c1 (stereo not shown) | 13.6
O=C(O)CNC1=NCCCCC1 | 0.366

SMILES | hERG current change (%, negative = inhibition) at 10uM [%]
COc1cccc(/C=N/NC(=O)c2cccc([N+](=O)[O-])c2)c1OS(=O)(=O)c1ccc(C)cc1 | -12.9
CN(Cc1cccc(Cl)c1)C(=O)C1CCN(C(=O)Nc2ccccc2)CC1 | -55.9
COC(=O)c1c(O)cc(=O)n2c1CCCCC2 | 12.7
Cc1c(Br)c(O)c(Br)c(O)c1/C=N/n1c(-c2ccccc2)n[nH]c1=S | 16.9
COc1ccc(C(=O)NC(C)CCc2ccccc2)c(OC)c1 (stereo not shown) | -26.3
COc1ccc(C(=O)n2cnc(N)n2)cc1 | 8.54
CCCC(=O)NC(Oc1ccc(Cl)cc1Cl)C(Cl)(Cl)Cl (stereo not shown) | 15.1
O=C(CN(c1ccc(Cl)cc1)S(=O)(=O)c1ccc(Cl)c([N+](=O)[O-])c1)NCCc1ccccc1 | 16.8
COc1ccc(C)cc1-n1nnnc1SCC(=O)NC1CC1 | 0.673
COc1cc(OC)c2c(=O)c(OC)c(-c3ccc(OC)c(OC)c3)oc2c1 | -21.5
C=CCn1c(=NC(=O)CN2C(=O)CCC2=O)sc2cc(S(N)(=O)=O)ccc21 | 19.9
COc1cc(/C=C2\SC(c3ccc(C)cc3)=NC2=O)cc(OC)c1OC | 3.32
CC(=O)Nc1ccc(S(=O)(=O)NC(CC(=O)O)c2ccc(OC(C)C)cc2)cc1 (stereo not shown) | 1.57
O=C(CNS(=O)(=O)c1ccc(F)cc1)N1CCCCCC1 | 13.1
Cc1ccc(NC(=O)c2cc(-c3cccs3)on2)cc1C | 5.78
c1ccc(-n2ncc3c(NCCN4CCOCC4)ncnc32)cc1 | -14.5
Cc1nn(-c2nc(-c3ccco3)cc(C(F)(F)F)n2)c(C)c1Cl | -2.1
O=C(CN1C(=O)C(=O)N(Cc2ccccc2)C1=O)Nc1cc(Cl)cc(Cl)c1 | 0.177
O=C(Nc1ccc2c(c1)C(=O)NC2=O)c1cccc(C(F)(F)F)c1 | 18.8
CCOc1ccc(NC(=S)N2CCCC2)cc1 | 9.13
CC(=O)c1ccc(N2CCN(C(=O)C3CCN(S(=O)(=O)c4cccs4)CC3)CC2)cc1 | -11.5
Cn1c(C(=O)N2CCc3ccccc3C2)cc2c(=O)n3ccccc3nc21 | -22.5

SMILES | hERG current change (%, negative = inhibition) at 10uM [%]
O=S(=O)(c1ccc(Br)cc1)c1nc(-c2ccccc2)oc1NCc1cccnc1 | 5.48
CC(=O)Nc1ccc(Nc2nc3ccccc3nc2NS(=O)(=O)c2ccccc2)cc1 | -4.76
Cc1cccc(C(=O)Nc2cccc(-c3ccc4nncn4n3)c2)c1 | -1.13
Brc1ccccc1Cn1c(-c2cncs2)nc2ccccc21 | -7.99
O=C(CCCN1C(=O)CCC1=O)Nc1ccccc1F | 10.8
CCN(CC)CCCn1c2c(c(SCC(=O)Nc3ccc4c(c3)OCCO4)nc1=O)CCC2 | -43.4
NC(=O)c1nn(-c2ccccc2)nc1NC(=O)CSc1nnnn1-c1ccc(Cl)cc1 | -53.7
Cc1ccc(-c2nnc(SCC(=O)N/N=C/c3ccccc3C(=O)O)n2-c2ccccc2)cc1 | -8.62
O=c1c2ccccc2ncn1-c1cccc(Br)c1 | -6.76
Cc1nc2ccccc2n1CC(=O)NN | 28.3
Cc1cc2[nH]c(=O)c(=O)[nH]c2cc1S(=O)(=O)NC1CCC(C)CC1 (stereo not shown) | 4.08
COCCNc1nc(-c2cc(C)n(CCc3ccc(OC)cc3)c2C)cs1 | 7.65
CCOC(=O)N1CCN(c2ccc(C(C)=O)cc2F)CC1 | 5.68
O=C(NCc1ccncc1)C(=O)C1C(=O)Nc2ccccc21 (stereo not shown) | 11.6
CCOC(=O)c1c(N2C(=O)C=CC2=O)sc(C)c1C | -4.52
O=S(=O)(c1ccc(Cl)cc1)N1CCN(c2ccc(N3CCOCC3)nn2)CC1 | -13
CC(C)OC(=O)CC(=O)CSc1nc2c(cc1C#N)CCC2 | 20.1
Cc1ccccc1N1C(=O)NC(=O)/C(=C\c2cc(Br)c(N3CCOCC3)o2)C1=O | 14.2
O=C1NCCN1CCNS(=O)(=O)c1ccc2ccccc2c1 | 9.35
O=C(c1cccc(Cl)c1)N1CCN(c2ncnc3c2cnn3-c2ccccc2)CC1 | -11.8
Cc1[nH]c(=O)[nH]c(=O)c1S(=O)(=O)Nc1cccc([N+](=O)[O-])c1C | 7.76
O=C(O)/C=C/C(=O)Nc1nc(-c2ccc3ccccc3c2)cs1 | 9.3

SMILES | hERG current change (%, negative = inhibition) at 10uM [%]
Cc1cccc(NC(=O)CSCc2c(C)noc2C)c1C | 17.3
O=C(Cc1ccccc1)c1c[nH]c(C(=O)O)c1 | 36.6
O=C1CC(C(=O)NC2CCCCC2)C2(CCCCC2)O1 (stereo not shown) | -1.23
O=S1(=O)CC(N2CCCCC2)C(N2CCCCC2)C1 (stereo not shown) | 1.51
COc1ccc(S(=O)(=O)N2CCOC2CNC(=O)C(=O)NCc2ccc3c(c2)OCO3)cc1OC (stereo not shown) | -2.72
Oc1c(C(Nc2ccccn2)c2cccnc2)cc(Cl)c2cccnc12 (stereo not shown) | -16.7
CCOC(=O)NC(C(Cl)(Cl)Cl)S(=O)(=O)c1ccccc1 (stereo not shown) | -6.98
COc1ccc(NC(=O)CCC(=O)NCCO)cc1 | 22.3
Cc1cccc(-c2nc(CNC(=O)c3ccco3)cs2)c1 | -57.9
COc1ccc(N2CC(C(=O)N[C@@H](C)C(=O)NCCc3ccccc3)CC2=O)cc1 (stereo partly shown) | 16
CCCN(CCC)S(=O)(=O)c1ccc(NC(=O)COc2ccccc2)cc1 | -8.2
O=C(Nc1ccccc1)c1ccc(NCCc2ccccc2)c([N+](=O)[O-])c1 | 11.7
CN1CCOc2cc(S(=O)(=O)Nc3ccc(F)cc3)ccc21 | -9.64
CS(=O)(=O)N(CC(=O)Nc1ccc2c(c1)OCO2)Cc1ccc(Cl)cc1 | -6.53
C/C(N)=C(/C#N)C(=O)COC(=O)c1ccccc1O | -0.192
Cc1ccccc1C(=O)Nc1ccc(N2CCCCCC2)cc1 | -19.8
COc1ccc(-n2c(SCC(=O)Nc3ccc(C(=O)O)cc3)nnc2-c2cccs2)cc1 | 14.3
COc1ccc(O)c(CN2CCC(n3nccc3NC(=O)CCOc3ccccc3)CC2)c1 | -60.4
O=[N+]([O-])c1ccc(NCCCO)c(S(=O)(=O)N2CCOCC2)c1 | -11.1
C=C1CCN([C@@H](CC(C)C)C(=O)N2CCCC2)S(=O)(=O)c2ccccc21 | -54.7
Cc1ccc(NC(=S)NC(=O)c2ccccc2)cc1NC(=S)NC(=O)c1ccccc1 | 14.3
CCc1nnc(NC(=O)CSc2n[nH]c(-c3ccccc3O)n2)s1 | -1.32
